# Data from the supplement of paper PMC8728848.
# The other results are listed elsewhere or left out.
# Experiments:
# Assay in all cases: glycan array binding signal (z-score within array); higher = stronger binding
# Conditions in all cases: glycan notation: IUPAC condensed, linker removed
# [1] = target: Fuc(a1-2)Gal(b1-4)GlcNAc(b1-3)Gal(b1-4)GlcNAc(b1-3)Gal(b1-4)GlcNAc
# Outline: (§1)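 Glycan array data came from 3228 arrays in the Consortium for Functional Glycomics database, and only arrays with an available protein sequence were kept. Glycan names were put into IUPAC-condensed notation, and columns mapping to the same glycan were averaged. The binding signal is a within-array Z-score, averaged across arrays of one protein sequence run at different concentrations or buffers and across linkers. A negative Z-score can be read as non-binding.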
# [2] = target: Fuc(a1-2)Gal(b1-4)GlcNAc(b1-3)GalNAc
# Outline: as §1
# [3] = target: Fuc(a1-2)Gal(b1-4)GlcNAc(b1-3)[Fuc(a1-2)Gal(b1-4)GlcNAc(b1-6)]GalNAc
# Outline: as §1
# [4] = target: Fuc(a1-2)Gal(b1-4)GlcNAc(b1-6)GalNAc
# Outline: as §1
# [5] = target: Fuc(a1-2)Gal(b1-4)GlcNAc6S
# Outline: as §1
# [6] = target: Fuc(a1-2)Gal(b1-4)[Fuc(a1-3)]GlcNAc
# Outline: as §1
# [7] = target: Fuc(a1-2)Gal(b1-4)[Fuc(a1-3)]GlcNAc(b1-2)Man(a1-3)[Fuc(a1-2)Gal(b1-4)[Fuc(a1-3)]GlcNAc(b1-2)Man(a1-6)]Man(b1-4)GlcNAc(b1-4)GlcNAc
# Outline: as §1
# [8] = target: Fuc(a1-2)Gal(b1-4)[Fuc(a1-3)]GlcNAc(b1-2)Man(a1-6)[Fuc(a1-2)Gal(b1-4)[Fuc(a1-3)]GlcNAc(b1-2)Man(a1-3)]Man(b1-4)GlcNAc(b1-4)[Fuc(a1-6)]GlcNAc
# Outline: as §1
# [9] = target: Fuc(a1-2)Gal(b1-4)[Fuc(a1-3)]GlcNAc(b1-2)[Fuc(a1-2)Gal(b1-4)[Fuc(a1-3)]GlcNAc(b1-4)]Man(a1-3)[Fuc(a1-2)Gal(b1-4)[Fuc(a1-3)]GlcNAc(b1-2)Man(a1-6)]Man(b1-4)GlcNAc(b1-4)GlcNAc
# Outline: as §1
# [10] = target: Fuc(a1-2)Gal(b1-4)[Fuc(a1-3)]GlcNAc(b1-3)Gal(b1-4)[Fuc(a1-3)]GlcNAc
# Outline: as §1
# [11] = target: Fuc(a1-2)Gal(b1-4)[Fuc(a1-3)]GlcNAc(b1-3)Gal(b1-4)[Fuc(a1-3)]GlcNAc(b1-3)Gal(b1-4)[Fuc(a1-3)]GlcNAc
# Outline: as §1
# [12] = target: Fuc(a1-2)Gal(b1-4)[Fuc(a1-3)]GlcNAc(b1-3)GalNAc
# Outline: as §1
# [13] = target: Fuc(a1-2)Gal(b1-4)[Fuc(a1-3)]GlcNAc(b1-3)[Neu5Ac(a2-6)Gal(b1-4)GlcNAc(b1-6)]Gal(b1-4)Glc
# Outline: as §1
# [14] = target: Fuc(a1-2)Gal6S(b1-3)GlcNAc
# Outline: as §1
# [15] = target: Fuc(a1-2)Gal6S(b1-3)GlcNAc6S
# Outline: as §1
# Fuc(a1-2)Gal6S(b1-4)Glc = target: Fuc(a1-2)Gal6S(b1-4)Glc
# Outline: as §1
# [16] = target: Fuc(a1-2)Gal6S(b1-4)Glc6S
# Outline: as §1
# [17] = target: Fuc(a1-2)Gal6S(b1-4)GlcNAc
# Outline: as §1
# Fuc(a1-2)[Gal(a1-3)]Gal = target: Fuc(a1-2)[Gal(a1-3)]Gal
# Outline: as §1
# [18] = target: Fuc(a1-2)[Gal(a1-3)]Gal(b1-3)GalNAc
# Outline: as §1
# [19] = target: Fuc(a1-2)[Gal(a1-3)]Gal(b1-3)GlcNAc
# Outline: as §1
# [20] = target: Fuc(a1-2)[Gal(a1-3)]Gal(b1-3)GlcNAc(b1-2)Man(a1-3)[Fuc(a1-2)[Gal(a1-3)]Gal(b1-3)GlcNAc(b1-2)Man(a1-6)]Man(b1-4)GlcNAc(b1-4)GlcNAc
# Outline: as §1
# [21] = target: Fuc(a1-2)[Gal(a1-3)]Gal(b1-3)GlcNAc(b1-2)Man(a1-3)[Fuc(a1-2)[Gal(a1-3)]Gal(b1-3)GlcNAc(b1-2)Man(a1-6)]Man(b1-4)GlcNAc(b1-4)[Fuc(a1-6)]GlcNAc
# Outline: as §1
# [22] = target: Fuc(a1-2)[Gal(a1-3)]Gal(b1-3)GlcNAc(b1-3)GalNAc
# Outline: as §1
# [23] = target: Fuc(a1-2)[Gal(a1-3)]Gal(b1-4)Glc
# Outline: as §1
# [24] = target: Fuc(a1-2)[Gal(a1-3)]Gal(b1-4)GlcNAc
# Outline: as §1
# [25] = target: Fuc(a1-2)[Gal(a1-3)]Gal(b1-4)GlcNAc(b1-2)Man(a1-3)[Fuc(a1-2)[Gal(a1-3)]Gal(b1-4)GlcNAc(b1-2)Man(a1-6)]Man(b1-4)GlcNAc(b1-4)GlcNAc
# Outline: as §1
# [26] = target: Fuc(a1-2)[Gal(a1-3)]Gal(b1-4)GlcNAc(b1-2)Man(a1-3)[Fuc(a1-2)[Gal(a1-3)]Gal(b1-4)GlcNAc(b1-2)Man(a1-6)]Man(b1-4)GlcNAc(b1-4)[Fuc(a1-6)]GlcNAc
# Outline: as §1
# [27] = target: Fuc(a1-2)[Gal(a1-3)]Gal(b1-4)GlcNAc(b1-3)GalNAc
# Outline: as §1
# [28] = target: Fuc(a1-2)[Gal(a1-3)]Gal(b1-4)GlcNAc(b1-6)GalNAc
# Outline: as §1
binder,measurement,setting,value
CIH1 (Colletotrichum higginsianum) (protein) LPQATPTTPTPTSASAAATISATSSPTCSPGPVIDYTVVSGDTLTIISQRFSSGICNIADASGITNPNFLSLGQVLQVPTYVCTPDNTSCLAKEGSDTCVEGGPATHTIVAGDTFFLVAQSLGLDVNALLAANEGVDPLLLQIGDVINIPVC,glycan array binding signal (z-score),[1],-0.073
same,glycan array binding signal (z-score),[2],-0.075
same,glycan array binding signal (z-score),[3],-0.075
same,glycan array binding signal (z-score),[4],-0.063
same,glycan array binding signal (z-score),[5],0.014
same,glycan array binding signal (z-score),[6],-0.086
same,glycan array binding signal (z-score),[7],-0.059
same,glycan array binding signal (z-score),[8],-0.048
same,glycan array binding signal (z-score),[9],-0.059
same,glycan array binding signal (z-score),[10],-0.064
same,glycan array binding signal (z-score),[11],-0.051
same,glycan array binding signal (z-score),[12],-0.048
same,glycan array binding signal (z-score),[13],-0.072
same,glycan array binding signal (z-score),[14],-0.072
same,glycan array binding signal (z-score),[15],-0.048
same,glycan array binding signal (z-score),Fuc(a1-2)Gal6S(b1-4)Glc,-0.046
same,glycan array binding signal (z-score),[16],-0.046
same,glycan array binding signal (z-score),[17],-0.056
same,glycan array binding signal (z-score),Fuc(a1-2)[Gal(a1-3)]Gal,-0.066
same,glycan array binding signal (z-score),[18],-0.072
same,glycan array binding signal (z-score),[19],-0.071
same,glycan array binding signal (z-score),[20],-0.006
same,glycan array binding signal (z-score),[21],-0.082
same,glycan array binding signal (z-score),[22],-0.061
same,glycan array binding signal (z-score),[23],-0.062
same,glycan array binding signal (z-score),[24],-0.067
same,glycan array binding signal (z-score),[25],-0.049
same,glycan array binding signal (z-score),[26],-0.063
same,glycan array binding signal (z-score),[27],-0.064
same,glycan array binding signal (z-score),[28],-0.081
